Source: the supplement of paper PMC9990464
Structures can show the parent of a compound that is named as a salt. This is one part of the list. Single values are uncertain, as repeats are few or missing.

tested on: KCNR; test: area under viability curve (10 nM-1 µM), viability relative to solvent or trametinib-only control (AUC (arbitrary, % viability x concentration range)); higher = less growth inhibition (more viable cells); settings: 72 h compound exposure (96 h after seeding) h; trametinib co-treatment 0 µM
Description: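 Four neuroblastoma cell lines (KCNR, SKNBE, SJNB8, SKNAS) were seeded in 384-well plates. At 24 h, 1 µM trametinib or DMSO was added, followed by library compounds at 10 nM, 100 nM and 1 µM. Viability was read by MTT at 96 h and normalised to solvent-treated cells (DMSO arm) or to trametinib-only cells (trametinib arm). The area under the 3-point viability curve was computed in GraphPad Prism; units are as given (approx. 100000 = no effect).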
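Note: KCNR is a neuroblastoma cell line carrying an ALK mutation, in this DMSO arm without trametinib, viability was normalised to solvent-treated cells.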

Structure (SMILES) | area under viability curve
C[C@]12CCC(=O)C(O)=C1CC[C@@H]1[C@@H]2CC[C@]2(C)C(=O)CC[C@@H]12 [Formestane] | 110000
C=C1C[C@@H]2[C@H](CC[C@]3(C)C(=O)CC[C@@H]23)[C@@]2(C)C=CC(=O)C=C12 [Exemestane] | 101000
Cc1ncc(CNC(=O)N(CCCl)N=O)c(N)n1 [Nimustine HCl] | 108000
N.N.[Cl][Pt][Cl] [Cisplatin] | 98800
CCC(=O)CCCCC[C@@H]1NC(=O)[C@H]2CCCCN2C(=O)[C@H]([C@@H](C)CC)NC(=O)[C@H](Cc2cn(OC)c3ccccc23)NC1=O [Apicidin] | 42900
CC[C@H](Nc1nc(NCc2cnc(C)cc2C)c2ncn(C(C)C)c2n1)[C@@H](C)O [Fadraciclib] | 76800
N[C@@H]1C[C@H]1c1ccccc1.N[C@H]1C[C@@H]1c1ccccc1 [Tranylcypromine hemisulfate] | 100000
CC(=O)Oc1ccc(/C=C/c2cc(OC(C)=O)cc(OC(C)=O)c2)cc1 [Triacetylresveratrol] | 98900
CC[C@@]1([C@H]2O[C@H]([C@H]3O[C@@](O)(CO)[C@H](C)C[C@@H]3C)C[C@H]2C)CC[C@H]([C@@]2(C)CC[C@]3(C[C@H](O)[C@@H](C)[C@@H]([C@H](C)[C@H](OC)[C@@H](C)C(=O)O)O3)O2)O1 [Monensin sodium] | 50000
N[C@@H](Cc1ccc(N(CCCl)CCCl)cc1)C(=O)O [Melphalan] | 103000
C[C@]12CC[C@@H]3c4ccc(OC(=O)N(CCCl)CCCl)cc4CC[C@H]3[C@@H]1CC[C@@H]2OP(=O)(O)O [Estramustine phosphate sodium] | 100000
O=C(O)c1nn(Cc2ccc(Cl)cc2Cl)c2ccccc12 [Lonidamine] | 105000

same assay, conditions: 72 h compound exposure (96 h after seeding) h; trametinib co-treatment 1 µM

Structure (SMILES) | area under viability curve
C[C@]12CCC(=O)C(O)=C1CC[C@@H]1[C@@H]2CC[C@]2(C)C(=O)CC[C@@H]12 [Formestane] | 105000
C=C1C[C@@H]2[C@H](CC[C@]3(C)C(=O)CC[C@@H]23)[C@@]2(C)C=CC(=O)C=C12 [Exemestane] | 96800
Cc1ncc(CNC(=O)N(CCCl)N=O)c(N)n1 [Nimustine HCl] | 101000
N.N.[Cl][Pt][Cl] [Cisplatin] | 105000
CCC(=O)CCCCC[C@@H]1NC(=O)[C@H]2CCCCN2C(=O)[C@H]([C@@H](C)CC)NC(=O)[C@H](Cc2cn(OC)c3ccccc23)NC1=O [Apicidin] | 27600
CC[C@H](Nc1nc(NCc2cnc(C)cc2C)c2ncn(C(C)C)c2n1)[C@@H](C)O [Fadraciclib] | 62400
N[C@@H]1C[C@H]1c1ccccc1.N[C@H]1C[C@@H]1c1ccccc1 [Tranylcypromine hemisulfate] | 100000
CC(=O)Oc1ccc(/C=C/c2cc(OC(C)=O)cc(OC(C)=O)c2)cc1 [Triacetylresveratrol] | 100000
CC[C@@]1([C@H]2O[C@H]([C@H]3O[C@@](O)(CO)[C@H](C)C[C@@H]3C)C[C@H]2C)CC[C@H]([C@@]2(C)CC[C@]3(C[C@H](O)[C@@H](C)[C@@H]([C@H](C)[C@H](OC)[C@@H](C)C(=O)O)O3)O2)O1 [Monensin sodium] | 29100
N[C@@H](Cc1ccc(N(CCCl)CCCl)cc1)C(=O)O [Melphalan] | 96500
C[C@]12CC[C@@H]3c4ccc(OC(=O)N(CCCl)CCCl)cc4CC[C@H]3[C@@H]1CC[C@@H]2OP(=O)(O)O [Estramustine phosphate sodium] | 98500
O=C(O)c1nn(Cc2ccc(Cl)cc2Cl)c2ccccc12 [Lonidamine] | 102000
